“And” between values parts separate entries of the source, which are not always exact repeats. Equal values may be shown once. This list was built around the results that the source calls inconclusive (neither active nor inactive); the mix of calls is not that of the screen. For some of these results: Potencies of inconclusive entries are left out as doubtful fits. For some of these results: A note “side channel” means that the fit belongs to a control or component signal, not to the main read-out. The source made the active and inactive calls. Unless noted, calls come from the whole dose curve; as a rule, active = well fitted curve in the direction sought with a large enough effect; inconclusive = small, poorly fitted or top-dose-only effect, or another doubt; inactive = no such curve, though single readings can be large; an effect the other way counts as inactive or inconclusive.
Columns and labels:
[1] = qHTS Assay for Identification of Small Molecule Antagonists for NFkB Signaling Pathway (AID 895; active = well fitted inhibition curve with a large enough effect in the signal ratio, with a control signal flat, not every such curve was filed as active; inconclusive = small, poorly fitted or top-dose-only effect, or effect the other way, or a change in a side signal; the % refers to the signal ratio; note: % is set by controls: 0 for no effect and ±100 for the full control effect); conditions: NFkB beta-lactamase reporter cells, FRET ratio 460/530
How it was run: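 Beta-lactamase reporter read-out (460 and 530 nm emission ratio, 405 nm excitation, 2 hrs substrate loading RT) after 5 hr stimulation with 10 pM TNF alpha in compound-treated NFkB-bla ME-180 cells in low-serum medium.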

[2] = qHTS Assay for Identification of Small Molecule Antagonists for Thrombopoietin (TPO) Signaling Pathway (AID 918); conditions: TPO-dependent cell signaling reporter, antagonist mode; activity change, negative = inhibition: at 38.5 µM (top of the series); note: nearly all actives have a fitted effect of over 60% in size
How it was run: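 Ba/F3 (murine, hTPO-R, GPIIb-luc reporter); overnight IL-3 withdrawal; cpd + TPO 26 pM final (EC50); 24 h 37 C/5% CO2; Steadylite luminescence after 10 min RT.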

[3] = target: Muscarinic acetylcholine receptor M1 (Rattus norvegicus) (UniProt P08482); assay: qHTS Assay for Antagonists of Acetylcholine Muscarinic M1 Receptor: Kinetic Measurement of Intracellular Calcium Response (AID 943); note: nearly all actives have a fitted effect of over 75% in size; note: potency is the fitted concentration of half-maximal effect;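 for activity change, negative = inhibition: Fluo-4 calcium signal as peak divided by basal fluorescence over 4 min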
How it was run: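 Rat M1-CHO cells, 2000/well, overnight → Fluo-4 no-wash dye with probenecid, 1 h 37C → compound 10 min, room temp → basal read 6 s → carbachol EC80 (100 nM) → 4 min kinetic read; peak/basal.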

[4] = target: Muscarinic acetylcholine receptor M1 (Rattus norvegicus) (UniProt P08482); assay: qHTS Assay for Antagonists of Acetylcholine Muscarinic M1 Receptor: Measurement of IP-One Response (AID 944); note: potency is the fitted concentration of half-maximal effect; nearly all actives have a fitted effect of over 75% in size
[5] = qHTS Assay for Identification of Small Molecule Agonists for Thrombopoietin (TPO) Signaling Pathway (AID 917); note: % is set by controls: 0 for no effect and ±100 for the full control effect
How it was run: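 Activators of TPO signaling were sought in murine Ba/F3 cells transfected with the human receptor, using a luciferase gene driven by the Glycoprotein IIb promoter; 24-hr compound exposure at 37 C alongside 26 pM TPO, in IL-3-free medium.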

[6] = target: Peroxisome proliferator-activated receptor alpha (Homo sapiens) (UniProt Q07869); assay: qHTS assay for small molecule agonists of the peroxisome proliferator-activated receptor alpha (PPARalpha) signaling pathway (AID 651778); conditions: PathHunter PPARalpha complementation, chemiluminescence, 6 h; max response: stronger effect = higher value; note: potency is the fitted concentration of half-maximal effect; for max response: % of control where 0% means no effect
How it was run: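 Chemiluminescence from complemented enzyme reported PPARalpha activation in cells after 6 hr of compound treatment at 37 C. The detection reagent was incubated for 60 min at room temperature, and compounds were scored as agonists.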

[7] = Cellular Toxicity (caspase-3) NIH 3T3 (AID 666); note: potency is the fitted concentration of half-maximal effect;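 for caspase-3 activation: 0% = DMSO basal and 100% = 100 µM tamoxifen stimulation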
How it was run: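 Luminescence from aminoluciferin released by caspase-3/7 cleavage of a peptide substrate served as read-out. Mouse fibroblast NIH 3T3 cells were exposed to compounds over a concentration range for 16 hours, and AC50 values came from standard Hill modelling.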

[8] = MultiTox-Fluor Cytotoxicity Assay - LYMP1-003 - Live Cells (AID 962); conditions: LYMP1-003 lymphoblastoid cells, MultiTox-Fluor live-cell protease fluorescence;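 note: potency is the fitted concentration of half-maximal effect; cells exposed to compound for 16 hours at 37 °C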
How it was run: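 qHTS, 1536-well; 2500 cells/well LYMP1-003; 5 hr 37 C settle; cpd 16 hr 37 C; MultiTox-Fluor reagent 60 min RT; live-cell protease fluor. 405/510; Hill-fit AC50; tetraoctylammonium bromide pos. ctrl.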

[9] = Cellular Toxicity (caspase-3) Renal Proximal Tubule (AID 667); conditions: renal proximal tubule cells; at 91.7 µM (top of the series) unless noted;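 note: cells exposed to compound for 16 hours at 37 °C before detection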
How it was run: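 Luminescent caspase 3/7 signal from peptide-aminoluciferin cleavage measures apoptosis in freshly isolated rat kidney proximal tubule cells after 16 h compound exposure. Concentration-response data are normalized to DMSO and 10 uM staurosporine, and AC50 values come from Hill equation fits.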

[10] = MultiTox-Fluor Cytotoxicity Assay - LYMP1-002 - Live Cells (AID 955); note: potency is the fitted concentration of half-maximal effect
How it was run: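 Read-out is live-cell protease activity (cell-permeant GF-AFC substrate, fluorescence Ex/Em=405/510), where a decrease indicates acute toxicity. Human lymphoblastoid cells were treated 16 hours at 37 C in a concentration series, and AC50 values came from standard Hill modelling.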

[11] = target: Ubiquitin carboxyl-terminal hydrolase 1 (Homo sapiens) (UniProt O94782); assay: Inhibitors of USP1/UAF1: Pilot qHTS (AID 504865);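 note: rhodamine fluorescence freed from ubiquitin-rhodamine substrate followed over time; potency is the fitted concentration of half-maximal effect; nearly all actives have a fitted effect of over 35% in size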
How it was run: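 1nM USP1/UAF1 + cpd, 15 min RT; start w/ Ub-Rho 150nM final; kinetic FL 480/540 nm, 6 reads q60 s. Buffer 50mM HEPES pH 7.8, 0.5mM EDTA, 1mM TCEP, 0.01% Tween-20, 0.1 mg/ml BSA.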

[12] = target: Bile acid receptor (Homo sapiens) (UniProt Q96RI1); assay: qHTS assay for small molecule antagonists of farnesoid X receptor signaling (AID 588526; calls by dose curve; note: potency is the fitted concentration of half-maximal effect; for activity change, negative = inhibition: % is set by controls: 0 for no effect and ±100 for the full control effect); conditions: HEK293T FXR-UAS-bla, beta-lactamase ratio, antagonist mode; activity change, negative = inhibition: at 76.7 µM (top of the series)
How it was run: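 Beta-lactamase reporter antagonist mode: HEK293T FXR-UAS-bla cells, titrated compound, CDCA stimulation, 16 h 37 C, CCF4 dye 2 h RT. Data normalized to CDCA 50 uM and DMSO; Hill-fit IC50.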

[13] = Cellular Toxicity (caspase-3) HUV-EC-C (AID 656); conditions: HUV-EC-C cells, caspase-3 activation (apoptosis); note: potency is the fitted concentration of half-maximal effect
How it was run: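 Luminescent caspase-3/7 activation (aminoluciferin substrate cleavage) in HUV-EC-C cells after 16 hr compound exposure, 37°C. Signal normalized to DMSO basal and 100 uM tamoxifen as 100%; AC50 from concentration-response fitted with the Hill equation.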

[14] = Cellular Toxicity (caspase-3) SHSY5Y (AID 657);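 note: potency is the fitted concentration of half-maximal effect; cells exposed to compound for 16 hours at 37 °C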
How it was run: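 Luminescent caspase-3/7 readout (aminoluciferin release) in SH-SY5Y cells after 16 h compound exposure in complete medium. Activity scaled between DMSO basal and 10 uM staurosporine as 100%; concentration-response fitted to Hill equation for AC50.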

[15] = Cellular Toxicity (caspase-3) Mesangial (AID 660); conditions: mesangial cells; Potency: caspase-3 activation; caspase-3 activation: at 91.7 µM (top of the series), normalized: DMSO 0%, 100 µM tamoxifen 100%;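 note: combined caspase 3 and 7 activity read by Caspase-Glo luminescence; potency is the fitted concentration of half-maximal effect; cells exposed to compound for 16 h before the caspase read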
How it was run: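 Mesangial cells, 1000/well, 5 h settle at 37 °C; compound 16 h, 37 °C; Caspase-Glo 3/7 reagent 20 min RT; luminescence. Norm.: DMSO = 0%, tamoxifen 100 uM = 100%. AC50, Hill fit.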

[16] = Cellular Toxicity (caspase-3) H-4-II-E (AID 663); conditions: H-4-II-E rat hepatoma; Potency: caspase-3 activation; caspase-3 activation: at 92.2 µM (top of the series), scaled: DMSO 0%, 100 µM tamoxifen 100%;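 note: cells exposed to compound for 16 hr before readout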
How it was run: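 Apoptosis induction is scored as increased luminescence from caspase 3/7 substrate cleavage in rat hepatoma H-4-II-E cells exposed to compound for 16 hr. Activity is scaled between DMSO and 100 uM tamoxifen.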

[17] = Cellular Toxicity (caspase-3) N2a (AID 665); conditions: N2a cells, luminescence, normalized: DMSO 0%, 10 µM staurosporine 100%; at 92.2 µM (top of the series);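 note: compound exposure lasted 16 h at 37 °C before readout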
How it was run: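 N2a cells, 1500/well, 5 h settle at 37 °C; cpd 16 h, 37 °C; Caspase-Glo 3/7, 1 h RT; luminescence. Norm: DMSO = 0, 10 uM staurosporine = 100%. AC50, Hill fit.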

[18] = Cell Viability - SH-SY5Y (AID 544); conditions: SH-SY5Y neuroblastoma cell viability; viability change, negative = cytotoxic: at 92.2 µM (top of the series);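 note: cells exposed to compound for 40 hours; nearly all actives have a fitted effect of over 55% in size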; note: potency is the fitted concentration of half-maximal effect
How it was run: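 Luminescent ATP read-out (CellTiter-Glo) measures loss of viable SH-SY5Y neuroblastoma cells after 40 hr compound exposure at 37 °C. AC50 values derive from standard Hill modelling of qHTS concentration-response data.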

[19] = Cellular Toxicity (caspase-3) SK-N-SH (AID 661); conditions: SK-N-SH caspase-3 activation, qHTS, DMSO as zero, staurosporine as full; at 91.7 µM (top of the series)
How it was run: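 Human neuroblastoma SK-N-SH, 1500 cells/well, 5 hr pre-incubation, then compound 16 hr, 37 °C. Caspase-Glo 3/7 reagent, 1 hr RT, luminescence. Norm. to DMSO/10 uM staurosporine; Hill-fit AC50.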

[20] = target: Cytochrome P450 2D6 (Homo sapiens) (UniProt P10635); assay: qHTS Assay for Inhibitors and Substrates of Cytochrome P450 2D6 (AID 891);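 note: luciferin methyl ether substrate demethylated by CYP2D6 with NADPH regeneration; nearly all actives have a fitted effect of over 60% in size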; note: potency is the fitted concentration of half-maximal effect; for activity change, negative = inhibition: top concentration of the series differs between compounds; % is set by controls: 0 for no effect and ±100 for the full control effect
How it was run: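 Human CYP2D6 (5 nM) with 30 uM Luciferin-ME EGE (at Km) in 100 mM KPO4, compound preincubated 10 min, then NADPH regeneration system for 60 min at room temperature. Luciferin read by luminescence; normalized to 1.43 uM quinidine.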

[21] = activity change, negative = inhibition: at 38.3 µM (top of the series) unless noted
Tags give direction and shape of the fitted curve.

Chain of UniProt Q07869 (Q07869 whole entry, looked up): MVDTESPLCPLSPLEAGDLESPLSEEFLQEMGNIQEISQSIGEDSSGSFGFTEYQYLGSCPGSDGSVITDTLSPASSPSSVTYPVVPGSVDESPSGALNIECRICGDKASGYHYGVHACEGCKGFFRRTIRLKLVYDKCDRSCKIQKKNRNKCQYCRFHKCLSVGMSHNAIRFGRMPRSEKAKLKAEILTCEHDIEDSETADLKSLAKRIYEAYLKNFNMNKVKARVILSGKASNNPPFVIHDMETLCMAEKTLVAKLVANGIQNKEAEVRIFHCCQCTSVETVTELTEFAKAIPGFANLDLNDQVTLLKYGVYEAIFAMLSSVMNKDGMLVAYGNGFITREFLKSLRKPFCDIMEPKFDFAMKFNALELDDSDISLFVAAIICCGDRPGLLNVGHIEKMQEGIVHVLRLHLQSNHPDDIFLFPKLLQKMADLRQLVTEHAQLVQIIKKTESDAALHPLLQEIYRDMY
Chain of UniProt P08482 (P08482 whole entry, looked up): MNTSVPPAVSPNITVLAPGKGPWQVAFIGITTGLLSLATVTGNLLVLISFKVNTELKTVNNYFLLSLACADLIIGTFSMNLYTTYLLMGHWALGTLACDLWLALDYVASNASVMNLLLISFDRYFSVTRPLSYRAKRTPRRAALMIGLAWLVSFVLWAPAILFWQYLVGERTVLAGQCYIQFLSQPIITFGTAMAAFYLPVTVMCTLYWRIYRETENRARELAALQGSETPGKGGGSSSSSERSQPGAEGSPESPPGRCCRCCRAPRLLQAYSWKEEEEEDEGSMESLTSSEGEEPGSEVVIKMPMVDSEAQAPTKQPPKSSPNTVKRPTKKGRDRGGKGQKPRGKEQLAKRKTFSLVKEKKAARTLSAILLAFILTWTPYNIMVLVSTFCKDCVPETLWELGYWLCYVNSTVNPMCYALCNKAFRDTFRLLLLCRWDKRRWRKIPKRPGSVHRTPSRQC
Chain of UniProt P10635 (P10635 whole entry, looked up): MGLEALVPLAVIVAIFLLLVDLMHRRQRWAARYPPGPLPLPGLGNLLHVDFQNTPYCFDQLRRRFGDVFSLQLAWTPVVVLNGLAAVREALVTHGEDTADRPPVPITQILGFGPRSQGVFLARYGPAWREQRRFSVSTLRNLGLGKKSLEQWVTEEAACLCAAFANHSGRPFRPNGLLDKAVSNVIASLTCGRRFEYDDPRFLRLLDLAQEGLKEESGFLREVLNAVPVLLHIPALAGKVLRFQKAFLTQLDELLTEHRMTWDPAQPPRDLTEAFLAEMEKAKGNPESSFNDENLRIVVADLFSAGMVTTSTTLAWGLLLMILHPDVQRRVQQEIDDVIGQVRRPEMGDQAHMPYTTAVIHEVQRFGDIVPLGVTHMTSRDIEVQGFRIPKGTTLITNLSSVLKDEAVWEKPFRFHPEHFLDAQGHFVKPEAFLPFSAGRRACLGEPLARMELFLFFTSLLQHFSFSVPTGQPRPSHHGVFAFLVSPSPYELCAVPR
Chain of UniProt O94782 (O94782 whole entry, looked up): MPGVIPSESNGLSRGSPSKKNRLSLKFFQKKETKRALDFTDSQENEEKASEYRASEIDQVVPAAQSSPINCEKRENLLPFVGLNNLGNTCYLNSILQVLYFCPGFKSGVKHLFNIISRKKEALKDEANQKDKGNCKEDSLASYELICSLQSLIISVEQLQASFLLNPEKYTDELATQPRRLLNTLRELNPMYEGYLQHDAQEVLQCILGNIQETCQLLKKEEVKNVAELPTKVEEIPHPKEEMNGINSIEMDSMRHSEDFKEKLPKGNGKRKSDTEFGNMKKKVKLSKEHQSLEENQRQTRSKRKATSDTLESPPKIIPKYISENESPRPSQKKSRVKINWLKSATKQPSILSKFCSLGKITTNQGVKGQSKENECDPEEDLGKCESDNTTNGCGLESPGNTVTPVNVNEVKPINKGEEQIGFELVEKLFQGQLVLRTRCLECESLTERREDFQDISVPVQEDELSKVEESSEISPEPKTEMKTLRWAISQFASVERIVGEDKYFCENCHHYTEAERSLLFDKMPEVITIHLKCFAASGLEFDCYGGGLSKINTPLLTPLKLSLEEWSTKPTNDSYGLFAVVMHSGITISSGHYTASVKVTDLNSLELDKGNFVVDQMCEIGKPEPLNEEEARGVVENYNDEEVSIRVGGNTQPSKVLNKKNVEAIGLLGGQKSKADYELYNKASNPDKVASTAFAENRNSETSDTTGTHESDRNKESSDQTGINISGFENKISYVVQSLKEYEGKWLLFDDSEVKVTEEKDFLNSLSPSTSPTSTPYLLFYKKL

In the case of `C[N+]1(C)CCc2cc3c(cc2[C@@H]1[C@@H]1OC(=O)c2c1ccc1c2OCO1)OCO3`, the Potency [1, 21] is reported as “inactive”, the activity change, negative = inhibition [2] is reported as inconclusive: -11.1% [phenotype inactive] and the Potency [3] is reported as inconclusive [inhibitor, single point]. For the same compound, the Potency [4] was inconclusive [inhibitor, partial curve, poor fit].
In the case of `C[N+]1(C)C2CC(OC(=O)C(CO)c3ccccc3)CC1[C@@H]1O[C@H]21` (stereo partly drawn), the activity change, negative = inhibition ([1]; at 38.3 µM (top of the series), stimulated with 10 pM TNF alpha) is reported as inactive: -16.7%.
For `C#CCN[C@@H](C)Cc1ccccc1`, the activity change, negative = inhibition [1, 21] was inconclusive: -19.9%, the Potency [5] was “inactive” and the activity change, negative = inhibition [2] was inconclusive: 2.35% [phenotype inactive]. The Potency [3] was “inactive”.
For `Cc1ccc([N+](=O)[O-])cc1C`, the max response [6] was inactive: -4.21% and inactive: -1.01%.
With `O=[N+]([O-])c1cccc(CCl)c1` the Potency [7] was inconclusive [rising, partial curve].
For `ClC1=C(Cl)C2(Cl)C3C(Cl)C=CC3C1(Cl)C2(Cl)Cl` (stereo not drawn), the Potency [8] was inconclusive [cytotoxic, full curve].
For `C[C@@H](Cc1ccc(OCC(=O)O)cc1)NC[C@H](O)c1cccc(Cl)c1`, the Potency [5] was “inactive”, the activity change, negative = inhibition [2] was inconclusive: -24.8% [phenotype inactive] and the Potency [3] was inconclusive [inhibitor, partial curve, poor fit]. For the same compound, the Potency [4] was active: 14.1 µM.
For `COC(=O)[C@H](N)CCCN=C(N)N[N+](=O)[O-]`, the Potency [5] was “inactive”, the activity change, negative = inhibition [2] was inconclusive: -21.5% [phenotype inactive] and the Potency [3] was inconclusive [inhibitor, partial curve, poor fit].
In the case of `[Cd+2].[Cl-].[Cl-]`, the caspase-3 activation [9] is reported as inactive: -13.6%.
In the case of `O=C1C(Cl)=C(Cl)C(=O)C(Cl)=C1Cl`, the Potency [10] is reported as inconclusive [cytotoxic, partial curve], the Potency [11] is reported as inconclusive [inhibitor, partial curve, poor fit] and the Potency [12] is reported as inconclusive [side channel, rising, single point].
With `Clc1ccc(C(c2ccc(Cl)cc2)C(Cl)Cl)cc1` the Potency [13] was inconclusive [rising, single point], the Potency [14] was active: 50.1 µM and the Potency [15] was active: 31.6 µM. For the same compound, the caspase-3 activation [16] was active: 87.3%, the caspase-3 activation [17] was inconclusive: 71.4% and the caspase-3 activation [9] was active: 152%. For the same compound, the activity change, negative = inhibition [12] was inconclusive: -54.4% and inconclusive: -27.2% and the Potency [6] was inconclusive [activator, single point].
For `N#CSCSC#N`, the Potency [18] was active: 1 µM, the Potency [14] was inconclusive [rising, single point] and the caspase-3 activation [19] was inconclusive: -5.59%. The Potency [10] was active: 15.8 µM.
In the case of `ClC1=C(Cl)C2(Cl)C3C(Cl)C(Cl)CC3C1(Cl)C2(Cl)Cl` (stereo not drawn), the Potency [13] is reported as inconclusive [rising, single point], the Potency [14] is reported as inconclusive [rising, single point] and the caspase-3 activation [19] is reported as inconclusive: 52.5%. The caspase-3 activation [16] was inconclusive: 71%, the caspase-3 activation [17] was inconclusive: 42.1% and the Potency [7] was “inactive”. For the same compound, the Potency [6] was inconclusive [activator, partial curve].
For `Nc1ccc(-c2ccc(N)c(Cl)c2)cc1Cl`, the Potency [8] was inconclusive [cytotoxic, partial curve].
In the case of `CC1=C2[C@@H]3OC(=O)[C@H](C)[C@H]3CC[C@@]2(C)C=CC1=O`, the Potency [20] is reported as “inactive”.
For `C[N+]1(C)CCO[C@@](O)(c2ccc(-c3ccc([C@]4(O)C[N+](C)(C)CCO4)cc3)cc2)C1`, the Potency [1, 21] was “inactive”, the activity change, negative = inhibition [2] was inconclusive: 2.63% [phenotype inactive] and the Potency [3] was inconclusive [inhibitor, partial curve, poor fit]. The Potency [4] was inconclusive [inhibitor, partial curve, poor fit].
With `O=[N+]([O-])C(Br)Br` the viability change, negative = cytotoxic [18] was active: -98.3% and the caspase-3 activation [16] was inconclusive: -3.08%.
For `COc1ccc(OC)c([C@H](O)[C@H](C)N)c1`, the Potency [20] was inconclusive [inhibitor, partial curve, poor fit], the Potency [1, 21] was “inactive” and the Potency [5] was “inactive”. The activity change, negative = inhibition [2] was inconclusive: -17.6% [phenotype inactive].
In the case of `C=C(C)c1ccccc1` (tested in a mixture with another compound), the Potency [20] is reported as inconclusive [inhibitor, partial curve].
In the case of `S=P(C1CCCCC1)(C1CCCCC1)[C@H](c1cccnc1)N1CCCC1`, the Potency [20] is reported as inconclusive [inhibitor, partial curve].
In the case of `C[C@H]1CCCC(=O)CCC/C=C/c2cc(O)cc(O)c2C(=O)O1`, the caspase-3 activation [19] is reported as inconclusive: 33.5% and the caspase-3 activation [17] is reported as inconclusive: 52.2% and inconclusive: 46.7%.

From PubChem BioAssay (NCATS)
